Laboratory results reported in patent US20180312565A1 (Affibody, published 2018).
Where two headings read alike, the source gives them in different places.

Experiments:
[1] = target: T1, mouse PD-L1 Fc Chimera (R&D Systems, cat. no. 1019-B7) (mouse, UniProt Q9EP73 19-238); test: SPR
T1 construct: bought; also called mPD-L1; not shown: Fc part of the bought Fc chimera, not described
Description: (§1) One flow cell surface on each chip was activated and deactivated for use as blank during analyte injections. In the kinetic experiment, HBS-EP was used as running buffer and the flow rate was 50 μl/min. The analytes, i.e. the Z variants, were each diluted in HBS-EP buffer within a concentration range of 1000 to 0.01 nM and injected for 5 min, followed by dissociation in running buffer for 15-25 min. After dissociation, the surfaces were regenerated with one or two injections of 0.1% SDS. Kinetic constants were calculated from the sensorgrams using the Langmuir 1:1 model of BiaEvaluation software 4.1 (GE Healthcare).

[2] = target: T2, human PD-L1 Fc Chimera (R&D Systems, cat. no. 156-B7-100) (human, UniProt Q9NZQ7 19-239, biotinylated with Sulfo-NHS-LC-Biotin in ELISA and AlphaLISA; not biotinylated in SPR); test: SPR, 1.67-135 nM
T2 construct: bought; also called hPD-L1; biotinylated hPD-L1; not shown: Fc part of the bought Fc chimera, not described
Description: (§2) The Z variants were also tested for binding against the sequence-related proteins hPD-L2, hB7-H3 and hB7-H4. The Biacore analyses were performed essentially as described in Example 3, however a flow rate of 30 μl/min was used. […] In the specificity test, i.e. the binding analysis against hPD-L2, hB7-H3 and hB7-H4, the 24 Z variants were injected at a concentration of 500 nM.

[3] = target: T3, rhesus PD-L1/Fc Chimera (Sino Biological Inc., cat. no. 90251-C02H) (rhesus monkey, UniProt F6PJN1 19-239); test: SPR, 1.67-135 nM
T3 construct: bought; also called RhPD-L1; rhesus monkey PD-L1; not shown: Fc part of the bought Fc chimera, not described
Description: as §2

[4] = target: T2, human PD-L1 Fc Chimera (R&D Systems, …); test: SPR, hPD-L1 immobilized
Description: as §1

[5] = target: T3, rhesus PD-L1/Fc Chimera (Sino …); test: SPR ranking, 5 and 50 nM
Description: as §2

[6] = target: T2, human PD-L1 Fc Chimera (R&D Systems, …); test: AlphaLISA, blocks hPD-L1 binding to hPD-1
Description: Finally, streptavidin coated Donor beads (Perkin Elmer, cat. no. 6772002) were added to a final concentration of 40 μg/ml and incubated for 30 min. All incubations were performed at RT in the dark. The plate was analyzed in the EnSpire instrument and the IC50 values were calculated using GraphPad Prism 5.

[7] = target: T2, human PD-L1 Fc Chimera (R&D Systems, …); test: AlphaLISA, blocks hPD-L1 binding to hPD-1; remark: listed apart in the source
Description: Exception 2: hPD-1-coated Acceptor beads were added to a final concentration of 10 μg/ml and incubated for 50 min.

[8] = target: T4, PD-L1 on PD-L1 expressing cells (IFNg-stimulated THP-1 cells; MDA-MB-231 cells) (UniProt Q9NZQ7 19-290, limits assumed); test: FACS, IFNg-stimulated THP-1 cells, 10 µg/ml, normalized to Z13091
T4 construct: whole, on cells
Description: Cells incubated with buffer alone were used as negative controls. […] Data from 10,000 cells were obtained using a FACS Calibur ([…]) and the data was analyzed using Flowing software 2.5.0 (Turku University). Mean fluorescence intensity (MFI) was used as a read out of binding capacity.

[9] = target: T5, human PD-L2 Fc Chimera (R&D Systems, cat. no. 1224-PL-100) (human, UniProt Q9BQ51 20-219, biotinylated in ELISA); test: SPR (Biacore 2000), hPD-L2 immobilized on CM5 chip, Z variant injected at 50, 5 and 0.5 nM
T5 construct: bought; also called hPD-L2; not shown: Fc part of the bought Fc chimera, not described
T5 sequence (looked up): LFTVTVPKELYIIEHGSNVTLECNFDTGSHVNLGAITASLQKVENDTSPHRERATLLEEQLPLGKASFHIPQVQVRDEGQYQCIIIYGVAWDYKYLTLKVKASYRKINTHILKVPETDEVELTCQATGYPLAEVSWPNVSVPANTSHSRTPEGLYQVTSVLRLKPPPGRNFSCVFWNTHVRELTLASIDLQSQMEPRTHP
Description: as §1

[10] = target: T6, human B7-H3 Fc Chimera (R&D Systems, cat. no. 1027-B3-100) (human, UniProt Q5ZPR3-2 29-245, biotinylated in ELISA); test: SPR (Biacore 2000), hB7-H3 immobilized on CM5 chip, Z variant injected at 50, 5 and 0.5 nM
T6 construct: bought; also called hB7-H3; not shown: Fc part of the bought Fc chimera, not described
T6 sequence (looked up): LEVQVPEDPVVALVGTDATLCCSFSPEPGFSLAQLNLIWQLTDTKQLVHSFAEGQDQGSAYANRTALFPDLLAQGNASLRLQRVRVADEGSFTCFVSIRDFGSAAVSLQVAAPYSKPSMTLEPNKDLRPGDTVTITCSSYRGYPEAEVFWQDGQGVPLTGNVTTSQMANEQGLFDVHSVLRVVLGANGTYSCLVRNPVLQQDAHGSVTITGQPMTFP
Description: as §1

[11] = target: T7, human B7-H4 (R&D Systems, cat. no. 6576-B7-50) (human, UniProt Q7Z7D3 29-258, biotinylated in ELISA); test: SPR (Biacore 2000), hB7-H4 immobilized on CM5 chip, Z variant injected at 50, 5 and 0.5 nM
T7 construct: bought; also called hB7-H4
T7 sequence (looked up): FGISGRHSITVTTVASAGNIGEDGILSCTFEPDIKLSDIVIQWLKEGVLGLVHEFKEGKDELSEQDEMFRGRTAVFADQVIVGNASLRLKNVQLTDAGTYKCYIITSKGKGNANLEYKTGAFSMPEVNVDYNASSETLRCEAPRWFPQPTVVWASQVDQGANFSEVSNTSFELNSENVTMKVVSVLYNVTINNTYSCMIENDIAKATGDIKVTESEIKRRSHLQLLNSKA
Description: as §1

T3 sequence (F6PJN1 entry or part of it C02H C02H): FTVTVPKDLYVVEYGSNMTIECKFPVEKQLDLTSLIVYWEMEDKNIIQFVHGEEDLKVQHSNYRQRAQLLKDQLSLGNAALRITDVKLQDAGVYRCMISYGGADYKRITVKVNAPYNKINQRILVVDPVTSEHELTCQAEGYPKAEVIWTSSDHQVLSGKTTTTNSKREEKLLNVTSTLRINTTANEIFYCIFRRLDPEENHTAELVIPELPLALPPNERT
T1 sequence (Q9EP73 19-238, change not shown): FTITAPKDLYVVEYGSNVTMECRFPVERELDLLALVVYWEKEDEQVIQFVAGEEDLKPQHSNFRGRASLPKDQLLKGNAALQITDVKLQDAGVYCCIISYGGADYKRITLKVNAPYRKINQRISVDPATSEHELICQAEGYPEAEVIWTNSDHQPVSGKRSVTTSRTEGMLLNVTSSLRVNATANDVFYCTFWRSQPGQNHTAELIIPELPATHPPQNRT

binding result [1]: no binding (tested: 50 nM)
Kd [2]: 0.63 nM
Kd [3]: 0.54 nM
Kd [4]: 0.46 nM
Kd [5]: ~5.2 nM
IC50 [6]: 6.9 nM
IC50 [7]: 1.1 nM
MFI (normalized) [8]: 1
binding result [9]: no binding (tested: 50 nM)
binding result [10]: no binding (tested: 50 nM)
binding result [11]: no binding (tested: 50 nM)
B1: His6-Z13091 (designed binder)
chain: MGSSHHHHHHLQVDAKYAKERNNAAFEILRLPNLTNGQHWAFIWKLADDPSQSSELLSEAKKLNDSQAPKVD
